In the RNAGym collection of RNA variant scans (doi:10.1073/pnas.2313332121):
This sample is rich in variants without activity.

B1: TPR 5TU (parent)
chain: GGAUCUUCUCGAUCUAACAAAAAAGACAAAUCUGCCACAAAGCUUGAGAGCAUCUUCGGAUGCAGAGGCGGCAGCCUUCGGUGGCGCGAUAGCGCCAACGUUCUCAACUAUGACACGCAAAACGCGUGCUCCGUUGAAUGGAGUUUAUCAUG

Variants of: B1
Experiment: polymerase ribozyme fitness, log enrichment relative to wild type (log ratio); higher = more active; in vitro selection for triplet polymerase activity
In short: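 Frozen incubation at −7 °C formed the core of a single, triplicate in vitro selection round applied to PCR-built, transcribed mutant libraries of each subunit of a heterodimeric triplet polymerase ribozyme. Extended constructs were gel-excised, captured with streptavidin beads and amplified by RT-PCR, and input and output libraries were Illumina-sequenced with a filter of ≥10 input reads and ≥1 read per output. Fitness is the logarithm of genotype enrichment relative to wild-type enrichment, with inverse-variance-weighted replicate averaging, and the logarithm is base 2.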

Variant | polymerase ribozyme fitness (log ratio)
GGAUCUUCUCGGUCUAACAAAAAAGACAAAUCUGCCACAAAGCUUGAGAGCAUCGUCGGAUGCAGAGGCGGCAGCCUUCGGUGGCGCGAUAGCGCCAACGUUCUCAACUAUGACACGCAAAACGCGUGCUCCGUUGAAUGGAGUUUAUCAUG | -2
GGAUCUUCUCGGUCUAACAAAAAAGACAAAUCUGCCACAAAGCUUGAGAGCAUCUUCGGAAGCAGAGGCGGCAGCAUUCGGUGGCGCGAUAGCGCCAACGUUCUCGACUAUGACACGCAAAACGCGUGCUCCGUUGAAUGGAGUUUAUCAUG | -3.97
GGAUCUUCUCGGUCUAACAAAAAAGACAAAUCUGCCACAAAGCUUGAGAGCAUCUUCGGAUGCAGAGGCGGCAGCCUCCGGUGGCGCGAUAGCGCCAACGUUCUCAACUAUGACACGCAAAACGCGUGCUCCGUUGAAGGGAGUUUAUCAUG | -1.31
GGAUCUUCUCGUUCUCACAAAAAAGACGAAUCUGCCAUAAUGCUUGAGAGCAUCUUCGGAUGCAGAGGCGGCAGCCUUCGGUGGCACGAUAGCGCCAACGUUCUCAACUAUGACACGCAAAACGCGUGCUCCGUUGAAUGGAGUUUAUCGUG | ≤ -4.2
GGAUCUUCUCGUUCUGACAAAAAAGACAAUUCUGCCACAAAGCUUGAGAGCAUCUUCGGAUGCAGAGGCGGCAGCCUUGGGUGGCGCGAUAGCGACAACGUUCUCAACUAUGACACGCAAAACGCGUGCUCCGUUGAAUGGAGAUUAUCAUG | ≤ -4.2
GGAUCUUCUCGUUCUGACAAAAAAGACAAAUCUGCCACAAAGCAUGCGAGCAUCUUCCGAAGCAGAGGCGGCAGCCUUCGGUGGCGUGAUAGCGCCAACGUUCUCAAGUAUGACACGCGAAACGCGUGCUCCGUUGAAUGGAGUUUAUCAUG | ≤ -4.2
GGAUCUUCUCGUUCUUUCAAAAAAGAUAAAUCUGCCACAAAGCUUGUAAGCAUCUUCGGAUGCAGAGGCGGCAGCGUUCGGUGGCUCGAUAGCGCCAACGUUCUCAACUAUGACACGCAAAACGCGUGCUCCGUUGAAUGGAGUAUAUCAUU | ≤ -4.2
GGAUCUUCUCGUUCUUACAGAAAAGACAAAUCUGCGACAAAGCUUGAGAGCAUUUUCGGGUGCAGAGGCGGCAGCCUUCGGUAGCGCGAUAGCGCCAACGUUCUCAACUAUGACACGCAAAACGCGUGCUCCGUUGAAUGGAGUUUAUCAUG | ≤ -4.2
GGAUCUUCUCGUUCUUACAAAAAAGACAAAUCUGCCACAAAGCUUGAGAGAAUCUUCGGAUGCAGAGGCGGCAGCCUUCGGUGGCGCGAUAGCACCAACGUUCUCAACCAUGGCAAGCAAAACGCGUGCUCCGUUGAAUGGAGAUUAUCAUG | ≤ -4.2
GGAUCUUCUCGUUCUAGCAAAAAAGACAAAUCUGCCACAAAGCUUGAGAGCAUCUUAGGAUGCAGAGGCGGCAGCCUUCGGUGGCGCGAUAGCGCCAUCGUUCUCAACUAUGACACGCAAAACGCGUGCUCCGUUGAAUGGAGUUUAUCAUG | -0.729
GGAUCUUCUCGUUCUAACCAAAAAGACAAAUCUGCCACAAAGCUUGAGAGCAUCUUCGGAUGCAGAGGCGGCAGCCUUCGGUGGCGCGAUAGCGUCAACGUUCUAAACUAUGACACGCAAAACGCGUGCUCCGUUGAAUGGAGUUUAUCAUG | -1.03
GGAUCUUCUCGUUCUAACACAAAAGACAAAUCUGCCACAAAGCUUGAGAGCAUCUUCGGAUGCAGAGGCGGCAGCCUUCGGUGGCUCGAUAGCGCCAACUUUCUCAACUAUGACACGCAAAACGCGUGCUCCGUUGAAUGGAGUUUAUCAAG | ≤ -4.2
GGAUCUUCUCGUUCUAACAGAAAAUACAAAUCUGCCUCAAAGUUUGAGAGCAUCUUCGGAUGCAGAGGCGGCAGCCUUCGGUGGCGCGAUAGCGGCAACGUUCUCAACUAUGACAUGCAAAACGCGUGCUCCGUUCAAUGGAGUUUAUCAUG | ≤ -4.2
GGAUCUUCUCGUUCUAACAUCAAAGACACAUCUGCCACAAAGAUUGAGAGCAUCUUCGGAUGCAGAGGCGGCAGCAUUCGGUGGCGCGAUAGCGCCAACGUUCUCAACUAUGACACGCAAAACGCGUGCUCCGUUGAAUGGAGUUUAUCAUG | ≤ -4.2
GGAUCUUCUCGUUCUAACAUAAAAGACAAAUCUGCCACAAAGCUUGAGAGCAUCUUCGGAUGCAGAGGCGGCAGCCUUCGAUGGCGAGAUAGCGCAAACGUCCUCAACUAUGACACGCAAAACGUGUGCUCCGUUGAAUGGAGUUUAUCAUG | ≤ -4.2
GGAUCUUCUCGUUCUAACAACAAAGACAAAUCUGCCACAAAGCUUGAGAGCAUCUUCGGAUGCAGAGGCCGCAGCCUUCGGUGUCGCGAUAGCGCCAACGUUCUCAACUAUGACACGCAAAACGCGUGCUCAGUUAAAUGGUGUUUAUCAUG | ≤ -4.2
GGAUCUUCUCGUUCUAACAAGAAAGACAAAUCUGCCACAUAGCUUGAGAGCAUCUUCGGAUGCAGAGGCGGCAGCCUUCGGUGGCUCGAUAGCGCGAACGUUCUCAACUAUGACACGCAAAACGCGUGCUCCGUUGAACGGAGUUUAUCAUG | ≤ -4.2
GGAUCUUCUCGUUCUAACAAUAAAGACAAAUCUGCCACCAAGCUUGAGAGCAUCUUCGGAUGCAGAGGCGGCAGCCUUCGGUGGCGCGAUAACGCCAACGUUCUCAACGAUGACACGCAAAACGCGUGCUCCGUUGGAUGGAGUUUAUCAUG | ≤ -4.2
GGAUCUUCUCGUUCUAACAAACAAGACAGAUCUGCCACAAAGCUUGAGAGCAUCUUCGGAUGCAGAGGCGGCAGCUUUCGGUGGCGCGAUAGCACCAACGUUCUCAACUAUGACACUCAAAACGCGUGCUCCGUUGAAUGGAGUUUAUCAUG | ≤ -4.2
